Test results as given in the supplement of paper PMC6206098.
± gives the uncertainty stated by the source. Shown are siRNA guide strands that differ only in the seed, positions 2 to 7.

Experiments:
M565 = test: cell viability relative to lipid-only control; higher = less toxic; conditions: concentration: 10 nM; 96 h; Mus musculus
HeyA8 = test: as above; conditions: concentration: 10 nM; 96 h; Homo sapiens
H460 = test: as above; conditions: concentration: 10 nM; 96 h; Homo sapiens
3LL = test: cell viability relative to siNT1 control; HeyA8 human ovarian and H460 human lung cancer; M565 mouse liver and 3LL mouse lung cancer; siNT1 is a non-toxic control siRNA; higher = less toxic; conditions: concentration: 10 nM; 96 h; Mus musculus
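Wherever cell viability relative to lipid-only control is given: reverse lipid transfection in 384-well plates, in triplicate, of duplexes on a non-toxic 19mer backbone with passenger strand 2′-O-methylated at positions 1 and 2, luminescence viability read-out.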
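Wherever cell viability relative to siNT1 control is given: Luminescence-based viability of cells reverse transfected in 384-well plates with lipid-complexed siRNAs built on a non-toxic 19mer backbone whose passenger strand carries 2′-O-methyl groups at positions 1 and 2, triplicates.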

Sequence	cell viability (M565)	cell viability (HeyA8)	cell viability (H460)	cell viability (3LL)
UCAGGGCACAUGUAAACCAAA	22.4 ± 2.6%	9.94 ± 0.29%	21.8 ± 4.7%	37.1 ± 8.4%
UGUUGCUACAUGUAAACCAAA	18.9 ± 2.6%	14.5 ± 1.2%	14.4 ± 2.7%	28 ± 15%
UACUCGAACAUGUAAACCAAA	48.3 ± 8.3%	90.7 ± 10%	80.3 ± 2.9%	93.9 ± 9.2%
UCUGUCCACAUGUAAACCAAA	5.48 ± 1.1%	57.1 ± 4.8%	34.7 ± 4.6%	74.5 ± 6%
UUCCACGACAUGUAAACCAAA	58.7 ± 5.9%	97.2 ± 12%	31.7 ± 2.9%	105 ± 12%
UGCAUCUACAUGUAAACCAAA	24.3 ± 3.5%	42.7 ± 1.2%	77.6 ± 16%	57.4 ± 16%
UCUGACCACAUGUAAACCAAA	6.07 ± 0.63%	30.5 ± 3.3%	29.5 ± 2.2%	58.1 ± 8.9%
UCCGCUUACAUGUAAACCAAA	76.9 ± 11%	64.9 ± 5.7%	72.8 ± 17%	115 ± 21%
UAUCAUGACAUGUAAACCAAA	82.6 ± 12%	91.9 ± 4.3%	27.6 ± 3.4%	115 ± 12%
UCCCGCCACAUGUAAACCAAA	12.4 ± 3.6%	9.59 ± 1.1%	47.6 ± 2%	33.3 ± 6.5%
UUGUUCUACAUGUAAACCAAA	23.4 ± 8%	58.5 ± 4.4%	69.2 ± 10%	82.1 ± 13%
UUUCCGUACAUGUAAACCAAA	42.4 ± 5%	71.8 ± 1.6%	44 ± 3.6%	31.7 ± 2.8%
UAGACCAACAUGUAAACCAAA	59.8 ± 5.7%	88.7 ± 7.2%	97.8 ± 18%	78.4 ± 2.9%
UUGAUCCACAUGUAAACCAAA	29.5 ± 13%	72.3 ± 1.1%	60.3 ± 5%	58.7 ± 2.4%
UUCGACUACAUGUAAACCAAA	85 ± 4.6%	83.7 ± 14%	61.8 ± 1.1%	90.1 ± 13%
UUAAUGAACAUGUAAACCAAA	55.6 ± 8.6%	85 ± 12%	68 ± 5.3%	59 ± 5.3%
UCACCCUACAUGUAAACCAAA	61.5 ± 14%	65.8 ± 10%	28.9 ± 1.6%	48.1 ± 6%
UAGCGACACAUGUAAACCAAA	60.8 ± 7.8%	24.3 ± 9%	63.4 ± 6.2%	67 ± 2.7%
UUAAUUGACAUGUAAACCAAA	83.2 ± 11%	92.3 ± 11%	74.9 ± 18%	89.7 ± 10%
UCGCCAUACAUGUAAACCAAA	55.9 ± 4.7%	82.97 ± 0.31%	92.2 ± 5.4%	89.4 ± 27%

Sequence	cell viability (M565)	cell viability (HeyA8)	cell viability (H460)	cell viability (3LL)
UGCAUGCACAUGUAAACCAAA	27 ± 7.6%	27 ± 6.8%	33.4 ± 0.56%	17.3 ± 3.8%
UCGCGGUACAUGUAAACCAAA	20.9 ± 1.7%	23.6 ± 2.8%	46 ± 4.5%	79.5 ± 19%
UCGCGUUACAUGUAAACCAAA	76.2 ± 16%	77.7 ± 7.1%	82.4 ± 18%	96.1 ± 19%
UAGGAGGACAUGUAAACCAAA	10.5 ± 2.1%	7.04 ± 0.11%	43.2 ± 2.2%	5.33 ± 2%
UUGGCUGACAUGUAAACCAAA	67.5 ± 24%	69.3 ± 1.3%	70 ± 9.9%	27.7 ± 3.7%
UUUUACUACAUGUAAACCAAA	93.8 ± 7.5%	98.6 ± 10%	72.4 ± 11%	93.5 ± 7.6%
UAUUAAGACAUGUAAACCAAA	94.7 ± 20%	101 ± 13%	98.3 ± 7.2%	113 ± 16%
UAUCCCGACAUGUAAACCAAA	90.3 ± 14%	85.3 ± 6.6%	88 ± 4.8%	67.5 ± 4.3%
UCAAAAAACAUGUAAACCAAA	78.6 ± 7.7%	84.3 ± 7.3%	65.4 ± 4.5%	93.3 ± 11%
UGACUUCACAUGUAAACCAAA	75.1 ± 1.5%	33.5 ± 1.4%	38.8 ± 4.8%	61.4 ± 15%
UAUCUUCACAUGUAAACCAAA	99.6 ± 20%	38.7 ± 5.2%	46.2 ± 3.2%	33 ± 3.4%
UCAUCAGACAUGUAAACCAAA	53.1 ± 4.7%	24.8 ± 1.1%	59.8 ± 6.7%	84.7 ± 16%
UCGCUCGACAUGUAAACCAAA	71.6 ± 7.9%	74.6 ± 2.4%	62.8 ± 5.2%	93.2 ± 10%
UGCCUCCACAUGUAAACCAAA	8.85 ± 5.1%	19.4 ± 1%	26.3 ± 0.96%	51.3 ± 10%
UCGUAGCACAUGUAAACCAAA	28.7 ± 7.1%	8.46 ± 1%	12.5 ± 1%	51.8 ± 9.9%
UUAGACGACAUGUAAACCAAA	98.6 ± 21%	105 ± 9.8%	100 ± 14%	108 ± 15%
UUGACAUACAUGUAAACCAAA	65.6 ± 7.8%	93.2 ± 7.3%	66.1 ± 8.8%	77.4 ± 6.5%
UUAAGACACAUGUAAACCAAA	62.2 ± 13%	65.5 ± 6%	70 ± 2.7%	51 ± 7.7%
UCUAGCAACAUGUAAACCAAA	63.9 ± 12%	84.7 ± 5.2%	58.3 ± 2.4%	101 ± 9.9%
UUGAACUACAUGUAAACCAAA	44.5 ± 4.1%	60.2 ± 6%	61.1 ± 5.9%	38.7 ± 3.4%

Sequence	cell viability (M565)	cell viability (HeyA8)	cell viability (H460)	cell viability (3LL)
UGUAACCACAUGUAAACCAAA	9.6 ± 1.1%	28.5 ± 3.2%	49.9 ± 1.4%	12.9 ± 1.5%
UGAAAAUACAUGUAAACCAAA	63.6 ± 5.9%	66 ± 7.1%	84.6 ± 24%	74.1 ± 11%
UGUUGGGACAUGUAAACCAAA	24.2 ± 5.1%	7.79 ± 0.91%	22.8 ± 2.7%	36.3 ± 11%
UGCGAACACAUGUAAACCAAA	82.2 ± 4.3%	80.2 ± 8%	93.9 ± 11%	88 ± 9.1%
UAAUCUGACAUGUAAACCAAA	77.4 ± 7.5%	96.2 ± 11%	85.2 ± 12%	112 ± 5.2%
UUUCUUGACAUGUAAACCAAA	101 ± 21%	98.4 ± 4.7%	51.3 ± 7%	95.5 ± 7.2%
UCAUAAAACAUGUAAACCAAA	65.9 ± 9.1%	90 ± 6%	33.9 ± 1.6%	91.4 ± 12%
UUGUACCACAUGUAAACCAAA	24.7 ± 2.4%	62.6 ± 1.3%	49.8 ± 2.8%	16.7 ± 4%
UACUGGAACAUGUAAACCAAA	30.4 ± 1.2%	12.8 ± 0.013%	81 ± 0.89%	55.9 ± 13%
UCUGCUCACAUGUAAACCAAA	45.3 ± 8.2%	63.9 ± 2.7%	55 ± 4.1%	94.4 ± 9%
UCAUACCACAUGUAAACCAAA	62.7 ± 17%	65.7 ± 6.7%	29.1 ± 1.6%	31.7 ± 7.2%
UUAUUUUACAUGUAAACCAAA	74.2 ± 7.5%	59.7 ± 2.6%	64.4 ± 9.9%	56.7 ± 3.2%
UCGACGUACAUGUAAACCAAA	59.7 ± 3.2%	77.2 ± 9.6%	99.8 ± 14%	89.7 ± 19%
UUGCGCCACAUGUAAACCAAA	44.4 ± 14%	58.6 ± 2%	32.6 ± 1.9%	9.86 ± 2.5%
UGCGAAUACAUGUAAACCAAA	80.8 ± 2.8%	82.9 ± 6.6%	85.8 ± 9.4%	93.7 ± 13%
UCAGCUUACAUGUAAACCAAA	78.2 ± 14%	82.6 ± 12%	68.8 ± 3.6%	97.8 ± 18%
UUUAUAAACAUGUAAACCAAA	96 ± 7.5%	96.8 ± 8.2%	91.8 ± 11%	101 ± 5.4%
UUCUUACACAUGUAAACCAAA	103 ± 12%	58.6 ± 5.5%	54.2 ± 11%	96.2 ± 13%
UUAGAUUACAUGUAAACCAAA	73.5 ± 13%	81.4 ± 2.9%	92.9 ± 11%	66.4 ± 12%
